This is one part of the list. At the low end of the ranking the order means little.
Target: SIX1-Q177R homeodomain (UniProt Q15475)
Experiment: universal protein binding microarray
Details: Universal all-10-mer PBM (8x60K, AMADID 030236), 300 nM GST-tagged protein, Alexa Fluor 488 anti-GST; buffer, salt, pH and temperature not stated; high values mean tight binding; most listed sequences are background and not binding sites; double strand, one strand shown

Sequence	binding signal [E-score]
CAGCACAC	0.269
GGTGAACC	-0.0298
CGCGTACG	-0.0515
CACCCGTC	0.338
CTTCTGCA	-0.0739
CCCCTTGC	0.0721
AACGTGAA	-0.229
CGCCAAAA	-0.186
ATCACCCG	0.137
ACTGTAAG	0.0413
GACCTGCA	-0.08
GTATTTAA	0.0599
AGAATCAA	0.0333
AAGCGGCT	-0.254
CCCGTGTA	0.453
CCAGGAGA	-0.0984
GTCCTCAC	-0.0686
AACAGGTA	-0.113
GATGGTGC	0.0635
ATCTCCAA	-0.118
CGGAGGAG	0.12
GTAAGGTA	0.0966

Sequence	binding signal [E-score]
ACGTGCCG	0.0403
GGTTCGTA	-0.0259
ATATTTCC	-0.158
GACGTCCC	-0.134
CCGAGCCG	-0.0934
AGTGACGA	-0.108
CGTCTCTC	-0.0434
ACTTGGGA	-0.101
GTACGCGA	-0.0273
AGTAATCG	0.13
CAACAACA	0.195
ACTTCGAC	-0.0545
ATAAGATA	-0.128
CGGTGCGC	0.221
ATCACTAG	0.0582
AACCCGCA	0.0339
GAAACTTC	-0.283
AGGTTACC	-0.0683
GATAAAAC	-0.0264
ATTCTTAG	-0.222
AGGGACCA	-0.257
ATTTTATC	-0.0664

Sequence	binding signal [E-score]
CGAGCAGC	0.0412
CATTGACC	0.0462
CACGCAAA	0.251
ACGGACAC	0.41
CGAAAATA	0.123
AAGCTCAT	-0.237
TAGGGAAA	-0.00598
ATGCCTTA	-0.131
ATGACTTG	-0.294
GAGACATC	-0.236
AGGGGGCG	0.0792
GCACAGGC	-0.171
ATTCTAAC	0.0579
ATTAGTGA	0.0101
ATACGTAC	0.115
ATCTGGGC	-0.158
ATTACTAG	-0.143
ACGTTAAT	0.0212
GATCGGTA	-0.13
TACTGATA	0.192
TAATAAGA	-0.12
ATCAGGCG	0.0278

Sequence	binding signal [E-score]
CGTGGCTA	-0.078
CGCCCCGC	0.0557
TACCAATA	0.0282
CGAAGTCG	-0.0694
CACCCGGA	0.388
GAAGAGCA	-0.171
ATCGGTAG	-0.144
CACAGACA	0.155
TATCCGAA	0.119
ATGTGCGC	-0.0512
GCAGACTA	-0.175
CTTAACGC	-0.0882
AGCGAGAT	-0.0449
GGACGTAC	-0.0768
GGCCGTGA	-0.0389
GCGATAGA	-0.104
AACGTAGA	0.106
CTCACTAC	0.0856
CGAGCTAG	-0.00664
AAAAAGGA	-0.164

Reference: article PMC10668032
